# Test results: the supplement of paper PMC3334620
# Over roughly 33,000 sequences, “E-score (-0.5 to 0.5)” has its median near -0.017; the highest 2% begin near 0.3. The list shows a part of the results.
# Target: T1, Sut1 (UniProt P53032)
# T1 sequence: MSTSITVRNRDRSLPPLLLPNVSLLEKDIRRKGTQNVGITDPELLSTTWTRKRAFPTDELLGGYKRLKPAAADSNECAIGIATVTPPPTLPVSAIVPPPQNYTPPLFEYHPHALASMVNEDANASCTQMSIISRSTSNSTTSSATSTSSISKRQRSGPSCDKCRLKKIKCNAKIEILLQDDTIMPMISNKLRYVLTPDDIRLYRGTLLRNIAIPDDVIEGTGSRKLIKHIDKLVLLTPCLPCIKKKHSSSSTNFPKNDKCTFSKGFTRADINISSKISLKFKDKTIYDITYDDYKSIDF
# Assay: PBM E-score (8-mer binding enrichment) (E-score (-0.5 to 0.5)); higher = stronger / more preferred TF binding; most listed sequences are background and not binding sites
# Conditions: protein concentration: 200 nM; construct: GST-full length
# Description: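 Universal 'all 10-mer' protein binding microarrays (Agilent AMADID 015681) probed with GST-tagged S. cerevisiae TFs (full-length or DBD) made by in vitro transcription/translation (PURExpress), about 100-200 nM. Bound TF was detected with fluorescent anti-GST. Each ungapped 8-mer (which stands for itself and its reverse complement) is scored by the PBM enrichment score (E-score), a modified Wilcoxon-Mann-Whitney statistic from -0.5 to +0.5, computed with the Universal PBM Analysis Suite. Scale: above 0.35 generally sequence-specific binding.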
row,Sequence,PBM E-score
1,ACTCTGGC,-0.0886
2,AATATTAC,0.28
3,CGTGGTCA,-0.251
4,GCGCGTTA,-0.0394
5,AGCGTCAA,-0.0624
6,AGAGTCAT,-0.183
7,ACTTCGAA,-0.0295
8,ATTGACGC,-0.0771
9,ATAACAAT,0.282
10,TAAGGGGA,-0.135
11,ACCCCCAC,-0.411
12,ATCATCGG,0.233
13,GAAAACGC,-0.0831
14,CCACAGAA,-0.0429
15,AACACGAT,0.0685
16,AATCGCAC,-0.0551
17,ATTGGGTA,0.0525
18,ATTTATTC,0.243
19,GATCGATA,0.0121
20,GGTACATA,0.178
21,ACTAGAAC,0.253
22,CTCATAGC,-0.0832
23,ACTTGCCA,-0.104
24,ATGTGAGG,-0.0862
25,GAATTTTA,0.251

row,Sequence,PBM E-score
1,AGGGGGAT,-0.113
2,CACTTAGG,-0.175
3,ATTATAGA,0.25
4,CAGGGGAG,-0.324
5,CTCTTCGC,-0.0209
6,CGGTTACG,-0.0542
7,GCAACTCA,0.0595
8,ACAATAAC,0.205
9,CCGGCGAC,-0.0592
10,AGGGTTCC,-0.0423
11,CTGAAGCA,-0.0713
12,ACAAAAGG,0.151
13,CCGCATCC,-0.0678
14,TAGCCTGA,0.0143
15,CTACCCAG,-0.18
16,ACGTAATA,0.148
17,GGCCCTTA,-0.281
18,GGGCGAAA,0.0444
19,ATTCTGCC,-0.0702
20,AAGTTCTG,-0.0216
21,TAGCAGGA,-0.0767
22,AATAGAAG,0.126
23,CAGAGACC,-0.142
24,CTTAGAAA,0.0731
25,CGCGCGGA,0.196

row,Sequence,PBM E-score
1,CTCGCCTC,-0.277
2,CTGGATAC,-0.194
3,CTGCTCGC,-0.163
4,AACCTCGG,0.174
5,GGTTAGAC,0.0526
6,AGTTAGAT,0.00854
7,AGAGACTG,-0.211
8,ACTCGCCA,-0.144
9,ACCGAGCA,0.205
10,ATCACCGC,-0.164
11,GGAATGCA,0.119
12,ACGAGTTG,-0.052
13,ACGCGTTA,-0.12
14,GTTTATCA,0.176
15,AACTAAGT,0.103
16,CGTGAGAG,-0.355
17,GGCCAAGA,-0.19
18,CCTTCACG,-0.0548
19,CCCTGCAG,-0.195
20,CCAAAGTC,0.0256
21,CGTTTTGC,0.00155
22,GGCTGGAA,-0.169
23,ATGTGTCC,-0.091
24,CTCGCACA,-0.138
25,GCTGGGGA,-0.314

row,Sequence,PBM E-score
1,CTGACAGC,-0.189
2,CAAAAACC,0.225
3,GCATTACA,-0.0955
4,CTATTCAC,0.116
5,AAAACCCG,0.0707
6,CAAGAAGA,0.165
7,AAGAGTGT,0.0481
8,GATAGGAC,-0.185
9,ACATCACT,0.00696
10,CATCAACG,-0.0773
11,GGGTTAGA,-0.16
12,CAGCAATC,-0.00135
13,ACGACATG,0.0335
14,TGGTACCA,-0.0181
15,ACCTACAT,-0.0217
16,ACGGTACT,-0.0859
17,GGATAGAC,-0.208
18,GGGGCTAC,-0.225
19,CGCAAGAG,-0.155
20,CACGAACC,0.00159
21,AACATGAT,0.0802
22,AAACACAC,0.0419
23,TAATCCTA,0.0332
24,AAGCGATC,-0.0122
25,CGCCGAAA,-0.00015

row,Sequence,PBM E-score
1,CGGACATC,0.406
2,TATGGAAA,0.158
3,CCTACTAG,-0.109
4,CAGGATCA,-0.154
5,CAGGGTAA,-0.171
6,GGTCAAGA,-0.0819
7,AGTGGATC,-0.0112
8,ATATGGCG,-0.175
9,CGCGGACC,0.277
10,AAAATAAC,0.12
11,AGCACACG,-0.157
12,CACGTGAA,-0.0385
13,AGCCCAAT,-0.0804
14,ACGAATGC,-0.0365
15,GTCGGCAC,-0.0576
16,ACTTTTCA,0.0168
17,CCACTGGG,-0.25
18,CCTTTGTA,-0.125
19,AGGCAATC,0.0365
20,CGGGATCA,-0.148
21,AAGTACGT,0.0407
22,ATCGCTTG,-0.258
23,ACTTTCAG,0.0286
24,GCACTCCA,-0.125
25,CACTCCGC,0.367

row,Sequence,PBM E-score
1,GCCGAGAC,-0.116
2,CATATCTC,0.192
3,ACGATCAT,0.0115
4,CAGACAGA,-0.0988
5,CATCCCAA,-0.0743
6,GGTACGAC,-0.26
7,GGCTACTA,0.101
8,CTCGATGC,-0.0993
9,AACGGGTC,-0.067
10,AGCAAGAT,0.015
11,GACGCGAC,-0.13
12,GTTTTGTA,0.215
13,CTCTTGAC,-0.103
14,CTCCCTTC,-0.375
15,CGTACATA,0.144
16,TACTTCTA,0.043
17,AATACAGA,0.13
18,ACGAGAGG,-0.127
19,AAGCCGAG,0.0244
20,ACCCGACT,0.0579
21,GCGAATCC,0.0479
22,TCTATTCA,0.138
23,AGCGGTCA,-0.119
24,CATTCGGC,-0.0155
25,GGCTGACA,0.0001

row,Sequence,PBM E-score
1,ACGGCCTA,-0.0662
2,AAAGGTGG,0.0908
3,TCCGCGCA,0.26
4,ACGATTAA,-0.0114
5,ACTCAGAT,-0.152
6,ACCTGAGC,-0.17
7,AGATGGCA,0.0507
8,GTATTACA,0.183
9,CTGCGCGC,-0.0615
10,AACTATCA,0.187
11,CGGTGCCA,-0.159
12,AAAGCCCG,0.208
13,GTTCAGAA,0.0324
14,AATTACCG,0.171
15,AACATTCG,0.107
16,ACAGACCC,-0.136
17,TACCTGAA,0.0944
18,AACAAGAA,0.191
19,AGTGGATG,-0.0759
20,CAACAGCA,0.0604
21,AATCATAG,0.134
22,ATATTGAA,0.21
